IC50 is the fitted dose that halves viability relative to control wells, and lower means more sensitive; fits outside the tested doses are given as limits. The AUC spans the tested range (256-fold, ending at the top dose) of the same fit; it is 1 without any effect and falls as sensitivity rises. The top dose, if marked as inferred, was calculated from the reported fits.
Tests used:
Experiment in all cases: Viability of human cancer cell lines after 72 h of drug (GDSC screen)
XMD14-99 = compound: COc1cc(N2CCN(C)CC2)ccc1Nc1nc(N)c(C(=O)c2c(Cl)cccc2Cl)s1 [XMD14-99]; details: top dose 10.24 µM; top dose inferred
Protocol: (§1)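 Human cancer cell lines in 384-well plates, medium with 10% serum, drug for 72 h over a 256-fold dose range (nine 2-fold or five 4-fold steps up to the top dose). Adherent lines were fixed and stained with the nucleic acid dye Syto60, suspension lines read with resazurin; signal relative to control wells, capped at 0 and 100%. One two-parameter sigmoid per drug and line, fitted in a mixed model over all curves with the slope shared within a line.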

FH535 = compound: Cc1cc([N+](=O)[O-])ccc1NS(=O)(=O)c1cc(Cl)ccc1Cl [FH535]; details: top dose 32 µM; top dose inferred
Protocol: as §1

AT-7519 = compound: O=C(NC1CCNCC1)c1n[nH]cc1NC(=O)c1c(Cl)cccc1Cl [AT-7519]; details: top dose 10.24 µM; top dose inferred
Protocol: as §1

Cell Line	AUC (XMD14-99)	IC50 (XMD14-99)	AUC (FH535)	IC50 (FH535)	AUC (AT-7519)	IC50 (AT-7519)
22RV1 (prostate, adherent)	0.955	> 10.2 µM	0.559	3.01 µM	0.724	3.28 µM
42-MG-BA (glioma, adherent)	0.985	> 10.2 µM	0.89	> 32 µM	0.85	8.59 µM
201T (lung adenocarcinoma, adherent)	0.972	> 10.2 µM	0.554	2.91 µM	0.773	5.04 µM
A172 (glioma, adherent)	0.978	> 10.2 µM	0.634	4.63 µM		
A2058 (melanoma, adherent)	0.986	> 10.2 µM	0.485	1.82 µM		
A2780 (ovary, semi-adherent)	0.854	8.57 µM	0.669	6.03 µM		
CADO-ES1 (Ewing sarcoma, suspension)	0.858	8.63 µM			0.85	8 µM
CFPAC-1 (pancreas, adherent)	0.98	> 10.2 µM			0.786	5.14 µM
CHP-134 (neuroblastoma, suspension)	0.954	> 10.2 µM			0.767	4.83 µM
COR-L303 (small cell lung carcinoma, suspension)	0.975	> 10.2 µM			0.329	0.217 µM
COR-L311 (small cell lung carcinoma, suspension)	0.947	> 10.2 µM			0.062	< 0.04 µM
COR-L321 (lung, suspension)	0.96	> 10.2 µM			0.364	0.27 µM
D-423MG (glioma, adherent)	0.965	> 10.2 µM			0.67	2.13 µM
D-566MG (glioma, adherent)	0.984	> 10.2 µM			0.672	1.92 µM
DOV13 (ovary, adherent)	0.974	> 10.2 µM			0.971	> 10.2 µM
EMC-BAC-1 (lung adenocarcinoma, adherent)	0.911	> 10.2 µM			0.706	2.67 µM
EMC-BAC-2 (lung adenocarcinoma, adherent)	0.981	> 10.2 µM			0.757	4.15 µM
ESO26 (oesophagus, adherent)	0.944	> 10.2 µM			0.455	0.486 µM
ESO51 (oesophagus, semi-adherent)	0.977	> 10.2 µM			0.552	0.94 µM
FLO-1 (oesophagus, adherent)	0.966	> 10.2 µM			0.465	0.492 µM
HCC202 (breast, adherent)			0.489	1.84 µM	0.47	0.511 µM
HCT-116 (large intestine, adherent)	0.935	> 10.2 µM	0.628	4.42 µM		
HT-1197 (bladder, adherent)	0.979	> 10.2 µM	0.716	9.25 µM		
Hey (ovary, adherent)	0.985	> 10.2 µM			0.629	1.42 µM
Hs746T (stomach, adherent)	0.981	> 10.2 µM			0.713	3.2 µM

Cell Line	AUC (XMD14-99)	IC50 (XMD14-99)	AUC (FH535)	IC50 (FH535)	AUC (AT-7519)	IC50 (AT-7519)
IGR-1 (melanoma, adherent)	0.948	> 10.2 µM	0.439	1.39 µM		
IHH-4 (thyroid, semi-adherent)	0.99	> 10.2 µM	0.447	1.48 µM		
JHOS-2 (ovary, adherent)	0.981	> 10.2 µM			0.918	> 10.2 µM
JHOS-3 (ovary, adherent)	0.968	> 10.2 µM			0.846	> 10.2 µM
JHU-029 (head and neck, adherent)			0.705	8.71 µM		
KMS-11 (myeloma, suspension)	0.989	> 10.2 µM			0.761	3.15 µM
KOSC-2 (head and neck, adherent)	0.985	> 10.2 µM	0.978	> 32 µM		
KP-1N (pancreas, adherent)			0.586	3.48 µM	0.462	0.503 µM
KYAE-1 (oesophagus, suspension)	0.969	> 10.2 µM			0.442	0.437 µM
NCC021 (kidney, adherent)	0.957	> 10.2 µM			0.975	> 10.2 µM
NCI-H292 (lung adenocarcinoma, adherent)	0.979	> 10.2 µM	0.732	10.7 µM		
NCI-H630 (large intestine, adherent)	0.978	> 10.2 µM			0.977	> 10.2 µM
NCI-H1793 (lung adenocarcinoma, adherent)	0.982	> 10.2 µM			0.933	> 10.2 µM
NCI-H2052 (mesothelioma, adherent)	0.97	> 10.2 µM			0.962	> 10.2 µM
OACM5-1 (oesophagus, semi-adherent)	0.952	> 10.2 µM			0.228	0.0922 µM
OACp4C (oesophagus, adherent)	0.971	> 10.2 µM			0.455	0.471 µM
OC-314 (ovary, adherent)	0.981	> 10.2 µM			0.7	2.13 µM
OV-7 (ovary, adherent)	0.934	> 10.2 µM			0.551	0.948 µM
OV-17R (ovary, adherent)	0.975	> 10.2 µM			0.95	> 10.2 µM
OV-56 (ovary, adherent)	0.985	> 10.2 µM			0.736	2.92 µM
OV-90 (ovary, adherent)	0.972	> 10.2 µM			0.687	2.49 µM
OVCA420 (ovary, adherent)	0.981	> 10.2 µM			0.956	> 10.2 µM
OVCA433 (ovary, adherent)	0.98	> 10.2 µM			0.918	> 10.2 µM
OVK-18 (ovary, adherent)	0.964	> 10.2 µM			0.925	> 10.2 µM
PEO1 (ovary, adherent)	0.979	> 10.2 µM			0.694	2.31 µM

Cell Line	AUC (XMD14-99)	IC50 (XMD14-99)	AUC (FH535)	IC50 (FH535)	AUC (AT-7519)	IC50 (AT-7519)
QGP-1 (pancreas, adherent)	0.951	> 10.2 µM			0.6	1.42 µM
RCC-AB (kidney, adherent)	0.949	> 10.2 µM			0.762	4.75 µM
RCC-ER (kidney, adherent)	0.972	> 10.2 µM			0.913	> 10.2 µM
RCC-FG2 (kidney, adherent)	0.971	> 10.2 µM			0.961	> 10.2 µM
RCC-JF (kidney, adherent)	0.981	> 10.2 µM			0.731	3.2 µM
RCC-JW (kidney, adherent)	0.946	> 10.2 µM			0.317	0.194 µM
RCC-MF (kidney, adherent)	0.948	> 10.2 µM			0.773	5.24 µM
RH-18 (rhabdomyosarcoma, adherent)					0.462	0.495 µM
SCC90 (head and neck, adherent)			0.739	13.2 µM	0.514	0.71 µM
SK-GT-4 (oesophagus, adherent)	0.97	> 10.2 µM			0.711	2.95 µM
SK-MEL-5 (melanoma, adherent)	0.975	> 10.2 µM			0.884	> 10.2 µM
SK-MG-1 (glioma, adherent)	0.936	> 10.2 µM			0.888	> 10.2 µM
SNU-61 (large intestine, adherent)	0.983	> 10.2 µM			0.319	0.168 µM
SNU-81 (large intestine, adherent)	0.982	> 10.2 µM			0.481	0.56 µM
SNU-175 (large intestine, suspension)	0.892	> 10.2 µM			0.497	0.63 µM
SNU-407 (large intestine, adherent)	0.98	> 10.2 µM			0.815	6.83 µM
SNU-1040 (large intestine, adherent)	0.979	> 10.2 µM			0.246	0.0902 µM
SNU-C5 (large intestine, adherent)	0.968	> 10.2 µM			0.794	5.25 µM
STS-0421 (soft tissue, adherent)			0.645	5.41 µM	0.379	0.28 µM
SU-DHL-10 (B-cell lymphoma, suspension)	0.932	8.05 µM			0.231	0.143 µM
SW1116 (large intestine, adherent)	0.985	> 10.2 µM			0.985	> 10.2 µM
TE-4 (oesophagus, adherent)	0.984	> 10.2 µM			0.779	4.18 µM
UWB1.289 (ovary, adherent)	0.979	> 10.2 µM			0.832	> 10.2 µM
YH-13 (glioma, adherent)	0.986	> 10.2 µM			0.795	5.07 µM
YMB-1-E (breast, adherent)	0.979	> 10.2 µM			0.887	> 10.2 µM

From the supplement of paper PMC4967469
